# According to article PMC4336329 (PLoS ONE, 2015):
# About 2,200 (0.71%) of roughly 310,000 compounds showed an effect of 50% or more. The effect is printed as a negative number. This is one part of the list.
# Target: human ether-à-go-go-related gene (hERG) potassium channel (human, UniProt Q12809)
# Assay: primary screen, population patch clamp on CHO cells stably expressing hERG
# Sequence of human ether-à-go-go-related gene (hERG) potassium channel (Q12809 whole entry, looked up): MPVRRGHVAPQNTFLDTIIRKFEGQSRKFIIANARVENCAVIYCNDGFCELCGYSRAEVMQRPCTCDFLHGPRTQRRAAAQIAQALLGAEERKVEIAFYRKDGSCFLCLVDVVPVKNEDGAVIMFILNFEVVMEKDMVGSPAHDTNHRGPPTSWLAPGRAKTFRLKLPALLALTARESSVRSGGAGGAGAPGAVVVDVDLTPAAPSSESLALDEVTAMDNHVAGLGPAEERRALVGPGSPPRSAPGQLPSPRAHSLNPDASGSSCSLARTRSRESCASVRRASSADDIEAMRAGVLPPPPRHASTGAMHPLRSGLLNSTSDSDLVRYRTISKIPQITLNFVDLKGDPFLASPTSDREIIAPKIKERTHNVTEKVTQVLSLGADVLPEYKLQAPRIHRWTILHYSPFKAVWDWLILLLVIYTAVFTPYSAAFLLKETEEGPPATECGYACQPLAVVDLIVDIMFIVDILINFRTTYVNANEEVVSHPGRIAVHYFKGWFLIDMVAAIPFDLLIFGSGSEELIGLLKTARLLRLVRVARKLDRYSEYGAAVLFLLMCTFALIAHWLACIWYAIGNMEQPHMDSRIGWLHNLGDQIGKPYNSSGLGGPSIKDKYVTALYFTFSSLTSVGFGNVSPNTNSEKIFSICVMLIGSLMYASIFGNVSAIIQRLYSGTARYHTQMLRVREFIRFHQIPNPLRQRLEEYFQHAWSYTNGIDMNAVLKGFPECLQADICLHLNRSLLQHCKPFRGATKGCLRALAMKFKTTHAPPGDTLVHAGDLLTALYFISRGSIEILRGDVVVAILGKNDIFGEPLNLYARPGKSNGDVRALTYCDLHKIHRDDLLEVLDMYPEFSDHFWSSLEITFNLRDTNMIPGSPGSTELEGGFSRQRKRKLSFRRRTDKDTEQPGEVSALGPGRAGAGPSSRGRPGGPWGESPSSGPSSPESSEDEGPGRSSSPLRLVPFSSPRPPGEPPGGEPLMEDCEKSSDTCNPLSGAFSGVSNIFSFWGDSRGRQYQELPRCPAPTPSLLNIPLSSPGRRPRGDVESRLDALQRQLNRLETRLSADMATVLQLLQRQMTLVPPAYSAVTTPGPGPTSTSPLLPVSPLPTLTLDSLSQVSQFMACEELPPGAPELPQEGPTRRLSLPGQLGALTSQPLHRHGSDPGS
row,SMILES,"hERG current change (%, negative = inhibition) at 1uM [%]"
1,Cn1nc(C(F)(F)F)c2cc(C(=O)Nc3ccc(Cl)cc3)sc21,6.22
2,CCOc1ccccc1-c1nnc(SCC(=O)Nc2ccccc2)o1,9.59
3,CCOc1ccc(S(=O)(=O)N(C)CC(=O)NCc2ccc3c(c2)OCO3)cc1,-21.6
4,COCCN(CC(=O)Nc1cccc(C)c1C)C(=O)c1cc2ccccc2cc1OC,3.27
5,O=C(O)c1ccccc1C(=O)O,4.51
6,Cc1sc2ncn(CC(=O)NCCCN3CC(C)CC(C)C3)c(=O)c2c1S(=O)(=O)N1CC(C)CC(C)C1 (stereo not drawn),12.5
7,O=C(CSc1nnc(Cn2c(=O)sc3ccccc32)n1-c1ccccc1)NCc1ccco1,-1.14
8,C/C=C\C(=O)Nc1cccc(C2=NOC3(C2)C[C@@H](C(N)=O)N(C(=O)CC(c2ccccc2)c2ccccc2)C3)c1 (stereo partly drawn),6.71
9,O=C(N/N=C/c1ccccc1C(=O)O)c1ccncc1,13.5
10,Br.C=CCn1c(C)csc1=Nc1ccc(C(=O)O)cc1,9.66
11,O=C(Cc1cccs1)NCCS(=O)(=O)N1CCN(c2cccc(Cl)c2)CC1,-5.58
12,CC(C)(C)[C@H]1C=C(C(=O)Nc2ccccc2)O[C@@H](OCc2ccc(CO)cc2)C1,10.8
13,COC(=O)c1cc(NC(=O)Cn2c(=O)oc3ccccc32)cc(C(=O)OC)c1,26.2
14,CN(C)S(=O)(=O)c1cccc(COC(=O)CN2CCCCCC2=O)c1,11.4
15,COc1ccc(C(=O)NNC(=S)NC(=O)/C=C/c2cccs2)cc1,8.39
16,Cc1cc(C)cc(C(=O)Nc2nnc(SCC(=O)NCC3CCCO3)s2)c1 (stereo not drawn),14.5
17,COc1ccc(NC(=O)CN2C(=O)NC(c3ccccc3)(c3ccccc3)C2=O)cc1,-33.1
18,COc1ccc(C2Nc3ccccc3C(=O)N2C2CCCCC2)cc1 (stereo not drawn),8.62
19,COc1ccc(S(=O)(=O)N2CCOCC2)cc1NC(=O)CSc1nnnn1C1CC1,4.58
20,COCC(=O)N(Cc1nc2ccccc2c(=O)[nH]1)Cc1cccs1,15.4
21,CCOc1ccccc1N1CCN(C(=S)Nc2ccc(S(N)(=O)=O)cc2)CC1,13.1
22,COc1cccc(C(=O)C2CCCN(Cc3cnn(C(C)C)c3)C2)c1 (stereo not drawn),-5.98
23,O=C(NC1=NCCS1)c1ccc(Cl)s1,19.4
24,CCOc1ccc(S(=O)(=O)NCc2ccc(F)cc2)c2cccnc12,7.59
